Measured values from the supplement of paper PMC11876631.
± gives the standard deviation of the averaged measurements. Laboratory Escherichia coli strains with one amino-acid change in an essential protein, pooled on minimal glucose agar with carbenicillin or gentamicin at twice the control MIC (plus kanamycin and chloramphenicol for the plasmids), 48 h. Fold change of barcode share against drug-free plates; higher = less susceptible. Active = above 20 in both replicates (the paper's putatively resistant). '<' = one read or none on drug, '>' = one read or none on a drug-free plate. Shares are relative, so most strains fall below 1 when a few take over. Listed are strains with at least 15 reads on both drug-free plates, and hits; most hits rest on fewer reference reads. Replicate rank correlation about 0.5. Edits are read from barcodes.

Target: Escherichia coli (laboratory strain)
Assay: barcode share on antibiotic plates over drug-free plates; higher = less susceptible
Description: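 A pool of E. coli strains, each edited to carry one amino-acid change in an essential protein, was grown for 48 h on minimal glucose agar with or without antibiotic; strain barcodes were sequenced; mean of two replicates.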

[1] = antibiotic: carbenicillin, 2× MIC (3.1 µg/mL)
[2] = antibiotic: gentamicin, 2× MIC (MIC 0.45 µg/mL)

| Protein | fold change of barcode share [1] | fold change of barcode share [2] |
| --- | --- | --- |
| hemB M116P (protein) MTDLIQRPRRLRKSPALRAMFEETTLSLNDLVLPIFVEEEIDDYKAVEAMPGVMRIPEKHLAREIERIANAGIRSVMTFGISHHTDETGSDAWREDGLVARMSRICKQTVPEMIVPSDTCFCEYTSHGHCGVLCEHGVDNDATLENLGKQAVVAAAAGADFIAPSAAMDGQVQAIRQALDAAGFKDTAIMSYSTKFASSFYGPFREAAGSALKGDRKSYQMNPMNRREAIRESLLDEAQGADCLMVKPAGAYLDIVRELRERTELPIGAYQVSGEYAMIKFAALAGAIDEEKVVLESLGSIKRAGADLIFSYFALDLAEKKILR | 0.273 ± 0.12 |  |
| hemB M77D (protein) MTDLIQRPRRLRKSPALRAMFEETTLSLNDLVLPIFVEEEIDDYKAVEAMPGVMRIPEKHLAREIERIANAGIRSVDTFGISHHTDETGSDAWREDGLVARMSRICKQTVPEMIVMSDTCFCEYTSHGHCGVLCEHGVDNDATLENLGKQAVVAAAAGADFIAPSAAMDGQVQAIRQALDAAGFKDTAIMSYSTKFASSFYGPFREAAGSALKGDRKSYQMNPMNRREAIRESLLDEAQGADCLMVKPAGAYLDIVRELRERTELPIGAYQVSGEYAMIKFAALAGAIDEEKVVLESLGSIKRAGADLIFSYFALDLAEKKILR | 0.735 ± 0.51 | 0.0971 ± 0.092 |
| hemB V115A (protein) MTDLIQRPRRLRKSPALRAMFEETTLSLNDLVLPIFVEEEIDDYKAVEAMPGVMRIPEKHLAREIERIANAGIRSVMTFGISHHTDETGSDAWREDGLVARMSRICKQTVPEMIAMSDTCFCEYTSHGHCGVLCEHGVDNDATLENLGKQAVVAAAAGADFIAPSAAMDGQVQAIRQALDAAGFKDTAIMSYSTKFASSFYGPFREAAGSALKGDRKSYQMNPMNRREAIRESLLDEAQGADCLMVKPAGAYLDIVRELRERTELPIGAYQVSGEYAMIKFAALAGAIDEEKVVLESLGSIKRAGADLIFSYFALDLAEKKILR | 0.318 ± 0.073 | 0.052 ± 0.05 |
| hemB V115Q (protein) MTDLIQRPRRLRKSPALRAMFEETTLSLNDLVLPIFVEEEIDDYKAVEAMPGVMRIPEKHLAREIERIANAGIRSVMTFGISHHTDETGSDAWREDGLVARMSRICKQTVPEMIQMSDTCFCEYTSHGHCGVLCEHGVDNDATLENLGKQAVVAAAAGADFIAPSAAMDGQVQAIRQALDAAGFKDTAIMSYSTKFASSFYGPFREAAGSALKGDRKSYQMNPMNRREAIRESLLDEAQGADCLMVKPAGAYLDIVRELRERTELPIGAYQVSGEYAMIKFAALAGAIDEEKVVLESLGSIKRAGADLIFSYFALDLAEKKILR | 0.418 ± 0.2 | < 0.00467 |
| hemB M77A (protein) MTDLIQRPRRLRKSPALRAMFEETTLSLNDLVLPIFVEEEIDDYKAVEAMPGVMRIPEKHLAREIERIANAGIRSVATFGISHHTDETGSDAWREDGLVARMSRICKQTVPEMIVMSDTCFCEYTSHGHCGVLCEHGVDNDATLENLGKQAVVAAAAGADFIAPSAAMDGQVQAIRQALDAAGFKDTAIMSYSTKFASSFYGPFREAAGSALKGDRKSYQMNPMNRREAIRESLLDEAQGADCLMVKPAGAYLDIVRELRERTELPIGAYQVSGEYAMIKFAALAGAIDEEKVVLESLGSIKRAGADLIFSYFALDLAEKKILR | 0.294 ± 0.15 | 0.0133 ± 0.0018 |
| hemB M77Q (protein) MTDLIQRPRRLRKSPALRAMFEETTLSLNDLVLPIFVEEEIDDYKAVEAMPGVMRIPEKHLAREIERIANAGIRSVQTFGISHHTDETGSDAWREDGLVARMSRICKQTVPEMIVMSDTCFCEYTSHGHCGVLCEHGVDNDATLENLGKQAVVAAAAGADFIAPSAAMDGQVQAIRQALDAAGFKDTAIMSYSTKFASSFYGPFREAAGSALKGDRKSYQMNPMNRREAIRESLLDEAQGADCLMVKPAGAYLDIVRELRERTELPIGAYQVSGEYAMIKFAALAGAIDEEKVVLESLGSIKRAGADLIFSYFALDLAEKKILR | 0.313 ± 0.093 | < 0.00414 |
| hemB V115W (protein) MTDLIQRPRRLRKSPALRAMFEETTLSLNDLVLPIFVEEEIDDYKAVEAMPGVMRIPEKHLAREIERIANAGIRSVMTFGISHHTDETGSDAWREDGLVARMSRICKQTVPEMIWMSDTCFCEYTSHGHCGVLCEHGVDNDATLENLGKQAVVAAAAGADFIAPSAAMDGQVQAIRQALDAAGFKDTAIMSYSTKFASSFYGPFREAAGSALKGDRKSYQMNPMNRREAIRESLLDEAQGADCLMVKPAGAYLDIVRELRERTELPIGAYQVSGEYAMIKFAALAGAIDEEKVVLESLGSIKRAGADLIFSYFALDLAEKKILR | 0.188 ± 0.11 | 0.0292 ± 0.013 |
